Assay results published in PMC4336329 (PLoS ONE, 2015).
The campaign covered roughly 310,000 compounds. About 2,200 (0.71%) showed an effect of 50% or more. Effects have a minus sign here. This is one part of the list.

Molecular target: human ether-à-go-go-related gene (hERG) potassium channel (human, UniProt Q12809)
Assay: primary screen, population patch clamp on CHO cells stably expressing hERG

Chain of human ether-à-go-go-related gene (hERG) potassium channel (Q12809 whole entry, looked up): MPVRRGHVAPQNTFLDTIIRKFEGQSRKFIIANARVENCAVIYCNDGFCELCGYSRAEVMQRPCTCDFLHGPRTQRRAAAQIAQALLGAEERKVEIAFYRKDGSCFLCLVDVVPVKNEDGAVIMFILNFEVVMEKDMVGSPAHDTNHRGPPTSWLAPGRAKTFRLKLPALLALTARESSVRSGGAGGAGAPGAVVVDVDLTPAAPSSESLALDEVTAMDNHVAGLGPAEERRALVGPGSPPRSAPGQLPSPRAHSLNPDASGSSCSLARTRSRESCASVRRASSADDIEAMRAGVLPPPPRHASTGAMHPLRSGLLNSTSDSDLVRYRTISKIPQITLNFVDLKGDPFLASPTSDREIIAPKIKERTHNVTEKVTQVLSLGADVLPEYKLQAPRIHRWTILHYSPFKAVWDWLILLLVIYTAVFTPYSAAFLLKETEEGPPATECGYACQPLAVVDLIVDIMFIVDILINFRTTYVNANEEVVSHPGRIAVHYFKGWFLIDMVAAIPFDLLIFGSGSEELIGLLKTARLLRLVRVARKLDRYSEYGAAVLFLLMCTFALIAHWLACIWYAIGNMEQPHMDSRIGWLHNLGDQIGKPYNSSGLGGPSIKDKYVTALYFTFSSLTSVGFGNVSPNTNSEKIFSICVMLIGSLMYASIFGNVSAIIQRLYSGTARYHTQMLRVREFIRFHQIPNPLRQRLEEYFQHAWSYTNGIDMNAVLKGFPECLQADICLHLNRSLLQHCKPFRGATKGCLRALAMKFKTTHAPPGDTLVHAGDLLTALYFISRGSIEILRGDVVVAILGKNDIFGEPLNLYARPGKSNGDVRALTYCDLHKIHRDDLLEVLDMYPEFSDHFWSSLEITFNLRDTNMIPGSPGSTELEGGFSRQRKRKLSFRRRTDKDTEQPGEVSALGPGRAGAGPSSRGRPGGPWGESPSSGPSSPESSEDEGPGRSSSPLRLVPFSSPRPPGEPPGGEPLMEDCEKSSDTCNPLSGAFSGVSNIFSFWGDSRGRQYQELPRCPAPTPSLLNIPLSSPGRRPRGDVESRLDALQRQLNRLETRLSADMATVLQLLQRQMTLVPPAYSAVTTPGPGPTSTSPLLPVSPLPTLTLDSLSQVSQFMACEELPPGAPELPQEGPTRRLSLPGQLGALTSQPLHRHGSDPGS

In order of falling “hERG current change (%, negative = inhibition) at 1uM” value:
1. Cc1cc(C)cc(C(=O)NC2C(=O)N3C(C(=O)O)=C(CSc4nnc(C)s4)CSC23)c1 (stereo not drawn)  24%
2. O=C(Nc1scc(-c2ccccc2)c1C(=O)O)c1ccc(F)cc1  22.1%
3. CCOc1ccc(C(=O)N2CCC3(CC2)NCCc2[nH]cnc23)cc1OCC  19.8%
4. CC(=O)Nc1ccc(/C(C)=N/Nc2nc(N3CCOCC3)nc(N3CCOCC3)n2)cc1  19%
5. Nc1c(Cl)ncnc1N1CCCC1  18.1%
6. Cc1ccccc1C(=O)N=c1ccn(-c2nc3ccccc3nc2NS(=O)(=O)c2ccccc2)cc1  18%
7. CCCCNS(=O)(=O)C1CCS(=O)(=O)C1 (stereo not drawn)  17.2%
8. O=C(NNC(=S)Nc1ccccc1Cl)C1CC1  17.2%
9. O=C(CSc1ccc(Cl)cc1)NC1=NN(c2ccccc2)C(=O)C1  16.2%
10. O=C(Cc1ccc(-n2c(=O)c3sccc3n(CC(=O)Nc3ccccc3)c2=O)cc1)NCc1ccco1  16.2%
11. Cc1nc(CC(=O)NNS(=O)(=O)c2ccc(F)c(Cl)c2)cs1  15.9%
12. CN(C)c1c(F)cc(-c2nn[nH]n2)cc1F  15.6%
13. Cc1ccc(CNC(=O)CS(=O)(=O)Cc2nc(-c3ccccc3F)oc2C)cc1  15.4%
14. CCOc1ccc2nc(N3C(=O)C(O)=C(C(=O)c4ccco4)C3c3ccco3)sc2c1 (stereo not drawn)  15.4%
15. Cn1c(SCC(=O)N2CCCC2)nnc1-c1cccs1  15.2%
16. CSc1ccc(NC(=O)c2cccnc2)cc1C#N  14.8%
17. COc1ccc(Cc2nnc(NC(=O)c3ccc(Cl)c([N+](=O)[O-])c3)s2)cc1  14.7%
18. COC(=O)c1cn(CC(=O)NCc2cccs2)c2ccccc12  14.2%
19. CCOC(=O)C(CO)(NC(C)=O)C(=O)OCC  14.1%
20. CC(C)N(C(=O)Cn1c(SCC(=O)Nc2nccs2)nc2ccccc21)C(C)C  13.8%
21. Cc1sc(NC(=O)CCS(=O)(=O)c2ccccc2)c(C#N)c1C  13.8%
22. O=C(CNC(=O)c1cc2c(s1)CCC2)Nc1ccccc1Br  13.2%
23. CC(C)c1ccc(NC2CCCN(C(=O)c3ccco3)C2)cc1 (stereo not drawn)  13.1%
24. COc1ccc(OC)c(-n2c(-c3ccccc3)n[nH]c2=S)c1  13%
25. O=C(Cc1ccccc1)NN1C(=O)C2C3C=CC(C3)C2C1=O (stereo not drawn)  12.9%
26. Cn1c(-c2ccc(C=O)s2)nc2ccccc21  12.8%
27. COc1ccccc1NC(=O)N1CCc2c([nH]c3ccccc23)C1C(F)(F)F (stereo not drawn)  12.7%
28. Cc1ccc(NC(=O)CSCC(=O)Nc2ccccc2N2CCCC2)cc1  12.6%
29. O/N=C1/C2C3CC4C5C3C1C5C1(OCCO1)C42 (stereo not drawn)  12.5%
30. CN(C)S(=O)(=O)c1cccc(-n2sc3ccccc3c2=O)c1  12.3%
31. COc1ccccc1N1CCN(C(=S)Nc2ccc(S(=O)(=O)N3CCOCC3)cc2)CC1  12.3%
32. CCCC(C)C(=O)Nc1ccc(S(=O)(=O)N2CCCC2)cc1 (stereo not drawn)  12.2%
33. CCc1onc(C)c1C(=O)O  12.1%
34. Cc1ccc(C2(C)NC(=O)N(Cc3c(C)noc3C)C2=O)cc1 (stereo not drawn)  12%
35. C#CCOc1ccccc1/C=C1/C(=O)ON=C1C  11.9%
36. CCOc1ccc(-c2nc(C#N)c(NCc3ccc4c(c3)OCO4)o2)cc1  11.6%
37. COc1cc(/C=N/NC(=S)NCCN2CCOCC2)ccc1O  11.5%
38. COc1ccc2nc(NC(=O)c3ccc4ncsc4c3)sc2c1  11.5%
39. COc1ccc(CNC(=O)CN2C(=O)COc3ccc(S(=O)(=O)N4CCOCC4)cc32)cc1  11.4%
40. CC1N(C)c2cc(NC(=O)c3ccco3)ccc2C1(C)C (stereo not drawn)  11.3%
41. CCN(CC)S(=O)(=O)c1ccc(NC(=O)CN(c2ccc(OC)cc2OC)S(C)(=O)=O)cc1  10.9%
42. Cc1nnc(-c2ccc(Oc3ccc(Cl)cc3)c([N+](=O)[O-])c2)o1  10.6%
43. COc1c(OC)c(O)c2c(=O)c(O)c(-c3ccccc3)oc2c1OC  10.1%
44. CCNC(=O)CCn1nc(-c2ccc(C)cc2)c2ccccc2c1=O  9.59%
45. Cn1c(CC(=O)Nc2ccccc2)nnc1SCC(=O)NC1CCCC1  9.49%
46. Cc1cc(OCC(=O)Nc2ccc3oc(=O)ccc3c2)ccc1Cl  9.11%
47. Cl.Clc1cc(I)cc(Cl)c1NC1=NCCN1  9.07%
48. CCOC(=O)N1CCN(C(=O)CNC(=O)c2nn(-c3ccc(OC)cc3OC)c(=O)c3ccccc23)CC1  9.05%
49. O=S1c2ccccc2Nc2ccccc21  9.01%
50. CC(C)(C)c1ccc(Oc2ccc(NC(=O)c3cccs3)cn2)cc1  8.97%
51. CN(CCC1CCOCC1)C(=O)CC1C(=O)NCCN1CC1CCCCC1 (stereo not drawn)  8.21%
52. CSCCC(NS(=O)(=O)c1ccccc1F)C(=O)NC(C)c1ccccc1 (stereo not drawn)  7.64%
53. COc1ccc(CNC(=O)C2CCN(C(=O)c3ccc(F)cc3)CC2)cc1OC  7.1%
54. COc1ccc(S(=O)(=O)N2CCN(c3ccccn3)CC2)cc1OC  6.82%
55. c1ccc(-c2nnc(-c3ccccc3)o2)cc1  6.76%
56. COc1cccc(CN2CCN(Cc3ccc(O)c(OC)c3)CC2CCO)c1 (stereo not drawn)  6.53%
57. O=C(NCc1ccc2c(c1)OCO2)C(=O)Nc1cc2c3c(c1)CC(=O)N3CCC2  6.08%
58. Cc1ccc(-n2cnc(N)c2C(=O)c2cccc([N+](=O)[O-])c2)cc1  5.84%
59. O=C(NNc1ccc([N+](=O)[O-])cc1)C1CC1c1ccccc1 (stereo not drawn)  5.8%
60. CCc1nnc(NC(=O)CCC(=O)NC2CCCC2)s1  5.44%
61. O=C(C1CCN(S(=O)(=O)c2cccc3nsnc23)CC1)N1CCCc2ccccc21  4.66%
62. Cc1ccc(S(=O)(=O)N2CCN(CCO)CC2)cc1-c1nnc2c3ccccc3c(C)nn12  4.64%
63. CCOC(=O)C1=C(c2ccccc2)NC(=O)NC1c1ccc(OC)cc1 (stereo not drawn)  4.55%
64. COc1ccc(/C=C2\N=C(SC)N(C)C2=O)cc1  4.03%
65. CN(c1ccccc1)S(=O)(=O)c1nnc(NC(=O)C2CCCCC2)s1  3.73%
66. Cc1cccc(C)c1NC(=S)NC(=O)c1ccc(Br)o1  3.51%
67. COc1ccc(Oc2c(C)oc3c(CN(C)C)c(O)ccc3c2=O)cc1  3.37%
68. CN1CCN(C(=O)C2CCN(c3ncc(C(F)(F)F)cc3Cl)CC2)CC1  3.35%
69. O=C(COc1ccc(Cl)cc1Cl)Nc1cccnc1  3.3%
70. C(=N\n1cnnc1)/c1ccccn1  3.11%
71. Cc1onc(-c2ccccc2Cl)c1C(=O)O/N=C(\N)c1ccccc1  2.52%
72. Cc1cc(C)nc(N2CCCC(C(=O)NC3CCCC3)C2)n1 (stereo not drawn)  2.21%
73. Cc1ccc(NS(=O)(=O)c2ccc(C(=O)NCC3CCCO3)cc2)cc1 (stereo not drawn)  1.84%
74. C/C(=N\NC(=O)c1ccc(Cl)cc1)c1ccc(Br)s1  1.39%
75. O=[N+]([O-])c1ccc(Cl)c(S(=O)(=O)Nc2ccc(-c3ccc(N4CCCC4)nn3)cc2)c1  0.863%
76. Cc1ccc(O)c(C2=Nc3ccccc3C2(C)C)c1  0.614%
77. CCN1CCN(CCNC(=O)CCCn2nc(C)c3c(C)n(-c4ccc(C)cc4)nc3c2=O)CC1  -0.261%
78. COc1c(Cl)cc(Cl)cc1/C=C/C(=O)c1ccc(NC(=O)c2cccs2)cc1  -0.352%
79. Cc1nc2ccc(S(=O)(=O)Nc3cccc(-c4nc5cccnc5s4)c3C)cc2s1  -0.685%
80. O=C(Cn1cnc2cc([N+](=O)[O-])ccc2c1=O)Nc1cccc(S(=O)(=O)N2CCOCC2)c1  -0.94%
81. O=C(O)CSCc1cn2cc(Cl)ccc2n1  -1.92%
82. Cc1ccc(Cl)cc1N1CCN(C(=O)c2ccc3nc[nH]c3c2)CC1  -2.09%
83. CC1CC(NS(=O)(=O)c2cc3c4c(c2)CCN4C(=O)CC3)CC(C)(C)C1 (stereo not drawn)  -3.42%
84. COc1ccc(CN(CC2CCCO2)S(=O)(=O)c2ccc(-n3cnnn3)c(OC)c2)cc1 (stereo not drawn)  -3.64%
85. COCCN(CCOC)Cc1c(C)[nH]c2c(C)c(C)ccc2c1=O  -3.72%
86. Cc1ccc(/C(O)=C2/C(=O)C(=O)N(Cc3ccco3)C2c2cccs2)cc1 (stereo not drawn)  -5.82%
87. O=C(NC1CCC(NC(=O)C(F)(F)C(F)F)CC1)C(F)(F)C(F)F (stereo not drawn)  -6%
88. CCN(CC)CCNC(=O)c1cc2c(-c3ccc(Cl)cc3)nn(C)c2s1  -13.3%
89. O=C(CCCOc1ccccc1)Nc1nccs1  -14.6%
90. CCOc1ccc(NC(=O)CN2CCN(C3c4ccccc4-c4ccccc43)CC2)cc1  -25.5%
